This is an account of results in patent US10189774B2 (priority 2006, dated 2019).

How the values of the series were obtained: 32.6 g (0.1 mol) of sodium 4-[bis(2-chloroethyl)amino]benzenebutyrate was dissolved in 100 ml of acetonitrile. 26 g (0.10 mol) of 2-Bromo-N,N-diethylethylamine.HBr in ethyl acetate was added into the reaction mixture. The mixture was stirred for 3 h at RT. Solid is removed by filtration. The solvents were evaporated off. The solid product was collected by filtration and washed with ether. After drying, it yielded 35 g of the desired product (72.3%). Hygroscopic product; Solubility in water: 300 mg/ml; Elementary analysis: C20H33BrCl2N2O2; MW: 484.30. Calculated % C, 49.60; H, 6.87; Br, 16.50; N, 5.78; O: 6.61; Cl, 14.64. Found % C, 49.52; H, 6.89; Br, 16.55; N, 5.75; O: 6.65; Cl, 14.64. ^1H-NMR (400 MHz, D2O): δ: 1.55 (t, 6H), 2.02 (m, 2H), 2.27 (m, 2H), 2.54 (m, 2H), 3.23 (m, 4H), 3.51 (m, 2H), 3.60-3.65 (m, 8H), 4.51 (m, 2H), 6.55 (m, 2H), 6.95 (m, 2H).
(A) 30.4 g (0.1 mol) of 4-[bis(2-chloroethyl)amino]benzenebutanoic acid was dissolved in 300 ml of chloroform. 20.6 g of N,N′-Dicyclohexylcarbodiimide was added into the reaction mixture. […] Calculated % C, 54.61; H, 7.56; N, 6.37; O, 7.27; Cl, 24.18. […]
36.9 g (0.1 mol) of sodium 4-[bis(2-chloroethyl)amino]-N-acetyl-L-phenylalanine was dissolved in 100 ml of acetonitrile. […] Calculated % C, 47.83; H, 6.50; Br, 15.15; N, 7.97; O, 9.10; Cl, 13.45. […]

`Br.CCN(CC)CCOC(=O)CCCc1ccc(N(CCCl)CCCl)cc1` [N,N-diethylaminoethyl 4-[bis(2-chloroethyl)amino]benzenebutyrate.HBr] returned a Solubility in water of 300 mg/mL. The value for `CCN(CC)CCOC(=O)CCCc1ccc(N(CCCl)CCCl)cc1.Cl` [N,N-diethylaminoethyl 4-[bis(2-chloroethyl)amino]benzenebutyrate.HCl] was 300 mg/mL.
